# Results: PubChem BioAssay AID938 (National Center for Advancing Translational Sciences (NCATS), 2007)
# Screen size: about 73,000 compounds; about 1,800 (2.5%) were called active. The shares of active, inactive and inconclusive entries below differ from those in the screen. Calls come from the whole dose curve; as a rule, active = well fitted activation curve with a large enough effect; inconclusive = small, poorly fitted or top-dose-only effect; inactive = no such curve, though single readings can be large or run the other way. Potencies of inconclusive entries are left out as doubtful fits.
# Test: qHTS Assay for Agonists of the Thyroid Stimulating Hormone Receptor: Activators of Intracellular cAMP Concentrations in Parental HEK 293; note: nearly all actives have a fitted effect of over 55% in size; for activation: % of control where 0% means no effect
# Details: parental HEK293 CNG cAMP sensor, membrane potential fluorescence; activation: at 57.1 µM (top of the series) unless noted
# Procedure, shortened: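 Parental HEK 293 cells stably expressing a modified CNG channel (no TSHR) report cAMP rise as membrane depolarization. Membrane potential dye with 100 uM RO 20-1724 was loaded for 60 min at room temperature, then compound added for 30 min; fluorescence read at 590 nm.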
# Potency is the fitted concentration of half-maximal effect; tags give direction and shape of the fitted curve.
Compound,Potency,activation
COc1cccc(Nc2ncc3nc(-c4ccccc4)c(=O)n(C[C@H]4CCCO4)c3n2)c1,"inconclusive [activator, partial curve]",
Cc1cccc(-n2ncc3c(NC(C)C)ncnc32)c1,"inconclusive [activator, single point]",
Nc1c2ccccc2nc2ccccc12,,inactive: -141%
c1ccc(C2=Nn3c(nnc3-c3ccncc3)SC2)cc1,,inactive: -8.33%
COc1ccc(OCCn2c(NC(=O)c3ccco3)nc3ccccc32)cc1,"inconclusive [activator, partial curve]",
Cc1noc(C)c1CSc1nc2sc(C)c(C)c2c(=O)n1-c1ccccc1,"inconclusive [activator, partial curve]",
O=C(CSc1nc(-c2ccco2)cc(C(F)(F)F)n1)N1CCN(Cc2ccccc2)CC1,"inconclusive [activator, single point]",
COc1ccc(-c2nnc(-c3ccc(N(C)C)cc3)o2)cc1,,inactive: 10.7%
COc1ccc2[nH]cc(CCNc3ncncc3-c3ccc(C(=O)N(C)C)cc3)c2c1,,inactive: 6.29%
CCNc1ncc2nc(-c3ccc(Cl)cc3)c(=O)n(Cc3cccs3)c2n1,"inconclusive [activator, partial curve]",
COc1ccccc1CNc1ncncc1-c1cccnc1,,inactive: 3.51%
CC(C)(C)n1nnnc1C(c1ccc(C#N)cc1)N1CCCC2(CCCCC2)C1 (stereo unspecified),"inconclusive [activator, full curve]",
Cc1ccc2[nH]c3c(c2c1)CCc1cn[nH]c1-3,,inactive: -7.19%
O=C(c1ccc(Br)o1)N(Cc1ccccc1)c1ccccn1,"inconclusive [activator, single point]",
O=C(C1CCCN1S(=O)(=O)c1ccc(Cl)c(Cl)c1)N1CCOCC1 (stereo unspecified),"inconclusive [activator, partial curve, poor fit]",
Cn1c(=O)c2c(nc(Br)n2Cc2ccccc2Cl)n(C)c1=O,"inconclusive [activator, partial curve]",
CN(C)C(=O)c1ccc(-c2nc(NCc3ccccc3)c3ccccc3n2)cc1,"inconclusive [activator, single point]",
COC(=O)c1c(C(=O)OC)c(C)n(Cc2ccco2)c1C,"inconclusive [activator, single point]",
COc1cccc(C(CC(=O)NCC2CCCO2)NS(=O)(=O)c2ccc(C)cc2)c1OC (stereo unspecified),,inactive: -1.9%
Cc1ccc(-c2nn3c(C)nnc3s2)cc1NC(=O)c1ccc(OC(C)C)cc1,"inconclusive [activator, single point]",
N#C/C(=C\NC(=S)c1ccncc1)c1nc2ccccc2s1,,inactive: -1.07% [at 11.4 µM]
COc1ccc(OC2C=CC(c3ccccc3)OC2CO)cc1 (stereo unspecified),,inactive: -1.84% [at 11.4 µM]
CCc1cc2c(nc1CC)CCN(CC/C(C)=N/O[C@@H](C)CN1CCCCc3nc(C)c(C)cc31)C2,,inactive: 12% [at 11.4 µM]
O=C(Nc1ccccc1N1CCOCC1)c1ccc(Br)o1,"inconclusive [activator, single point]",

Compound,Potency,activation
Cc1cc(C)c(C#N)c(SCS(=O)Cc2ccccc2)n1 (stereo unspecified),"inconclusive [activator, partial curve]",
O=C(Cc1ccc(Cl)c(Cl)c1)OCCN1CCCC1,"inconclusive [activator, single point]",
CCN1CCCC1CNC(=O)c1cc2c(C)nc3ccccc3c2o1 (stereo unspecified),,inactive: 9.15%
COc1ccc(NS(=O)(=O)c2ccc(NC(=O)C(C)(C(F)(F)F)C(F)(F)F)cc2)nn1,,inactive: 0.701%
Cc1ccc2[nH]c(=O)c(CN(Cc3ccc4c(c3)OCO4)Cc3nnnn3C3CCCC3)cc2c1,"inconclusive [activator, single point]",
C[N+](C)(N)Cc1nc(-c2ccc(Cl)cc2)no1,,inactive: 6.69% [at 11.4 µM]
Cl/C(=C\n1cncn1)c1ccc(Cl)cc1Cl,"inconclusive [activator, full curve, poor fit]",
C(=C\c1ccccc1)/CSc1nnc(-c2ccccn2)n1Cc1ccco1,active: 20 µM,
Nc1nc(-c2ccccc2)cc(N2CCCCC2)n1,"inconclusive [activator, partial curve]",
Cc1ccccc1C1CC(c2ccccc2)Nc2ncnn21 (stereo unspecified),"inconclusive [activator, single point]",
CC12CC(c3ccccc3O1)N(C(=O)c1ccco1)C(=O)N2c1ccccc1 (stereo unspecified),"inconclusive [activator, partial curve]",
Brc1ccc(-c2noc(COc3ccc4c(c3)CCC4)n2)o1,"inconclusive [activator, partial curve]",
CC1CCN(Cc2nc3c(c(=O)n(C)c(=O)n3C)n2CCN2CCOCC2)CC1,"inconclusive [activator, partial curve]",
c1cncc(CNc2ncncc2-c2cccnc2)c1,,inactive: -3.08%
COc1cccc(-c2cc(C(=O)N3C(C)CCCC3C)no2)c1 (stereo unspecified),"inconclusive [activator, partial curve]",
Nc1nc2c(s1)CC(c1ccccc1)CC2 (stereo unspecified),"inconclusive [activator, single point]",
CC1=CC(=O)C2=C(C)CC[C@@H]3[C@@H](OC(=O)[C@H]3C)[C@H]12,,inactive: 2.65% [at 25.6 µM]
CC1=CCC2C(=O)N(c3nc4ccccc4n3C)C(=O)C2C1 (stereo unspecified),"inconclusive [activator, single point]",
Cc1nn(Cc2ccc(Cl)c(Cl)c2)c(C)c1NC(=O)c1cc(CC(C)C)on1,"inconclusive [activator, single point]",
COCCn1nnnc1C(C(C)C)N1CCC(Cc2ccccc2)CC1 (stereo unspecified),"inconclusive [activator, single point]",
COc1cccc(N2CCN(Cc3nc(N)nc(Nc4ccccc4OC)n3)CC2)c1,,inactive: 13.8%
C[N+]1(C)CCc2cc(O)c(O)cc2[C@H]1Cc1ccc(O)c(O)c1,,inactive: -2.52% [at 11.4 µM]
Cc1ccc(Cn2nnc(C(=O)Nc3cc(C)ccc3C)c2N)cc1,"inconclusive [activator, single point]",
O=C1CC(N2CCN(c3cccc(C(F)(F)F)c3)CC2)C(=O)N1c1ccccc1F (stereo unspecified),"inconclusive [activator, full curve]",

Compound,Potency,activation
COc1ccc(/C(O)=C(\C#N)c2nc3ccccc3n2C)cc1OC,"inconclusive [activator, single point]",
CCCOc1ccc(C2(C(=O)O)CCCC2)cc1,"inconclusive [activator, single point]",
c1coc(Cn2c(-c3ccco3)nc3ccccc32)c1,"inconclusive [activator, partial curve]",
COC(=O)c1[nH]c2c(c1C)C(=O)CC(c1cccs1)C2 (stereo unspecified),,inactive: 16.2%
O=C(O)c1cc(NCc2c(F)cccc2Cl)ccc1N1CCOCC1,"inconclusive [activator, full curve]",
COCCN1Cc2cccc(C(=O)Nc3cc(C)cc(C)c3)c2C1=O,,inactive: 7.62%
COC(=O)c1cc(NC(=O)CN2CCOCC2)cc(C(=O)OC)c1,,inactive: 3.85%
Cc1cccc(C)c1NC(=O)CSc1nnc(Cn2nnc(-c3ccccc3)n2)n1-c1ccccc1,"inconclusive [activator, partial curve]",
O=C(NCc1ccco1)c1ccc(OCC2CCCO2)cc1 (stereo unspecified),"inconclusive [activator, single point]",
COC(=O)c1sc(N)c(C(=O)OC)c1COC(=O)c1c(C)noc1C,"inconclusive [activator, single point]",
CC(C)(C)C1CCc2onc(C(=O)Nc3ccc(F)cc3F)c2C1 (stereo unspecified),"inconclusive [activator, partial curve]",
COC(=O)[C@H](C)NC(=O)C/C=C\[C@@H](C)CO,,inactive: -2.58% [at 11.4 µM]
CCCCOc1ccccc1C1NC(=O)NC(C)=C1C(=O)OCCOCC (stereo unspecified),"inconclusive [activator, full curve, poor fit]",
Nc1nc(-c2ccc(Cl)c(Cl)c2)c(-c2ccncc2)s1,,inactive: 5.86%
Cn1c(=O)c2[nH]c(CCNC(=O)c3ccccc3)nc2n(C)c1=O,,inactive: 10.7% [at 11.4 µM]
CN1C(=O)C[C@H](c2ccccc2)C1=O,"inconclusive [activator, single point]",
COC(=O)c1cc(OC)c(OC)cc1NC(=O)c1ccco1,"inconclusive [activator, single point]",
COc1ccc(NC(=O)c2ccco2)cc1NC(=O)c1cc2ccccc2o1,"inconclusive [activator, partial curve]",
CCn1ncc(Br)c1C(=O)Nc1sc2c(c1C(N)=O)CCC2,,inactive: 2.22%
C[C@@H](C(=O)NCc1ccc(C(F)(F)F)nc1)[C@H]1C[C@]1(C)[C@H](NC(=O)OCc1ccccc1)c1ccccc1,"inconclusive [activator, partial curve]",
COCCn1c(COc2ccc(C)cc2)nc2ccccc21,"inconclusive [activator, single point]",
Cc1ccc(C)c(C(=O)N(Cc2nc(-c3ccc(Cl)cc3)no2)C(C)C)c1,"inconclusive [activator, partial curve, poor fit]",
COc1ccc(N2CSC3=C(C#N)C(c4cccc(OC)c4OC)CC(=O)N3C2)cc1 (stereo unspecified),"inconclusive [activator, full curve]",
